Relative signal intensity data for two molecules are collected here from US20200392253A1.

The target of experiment [1] is PDGF (CST, #8912) (UniProt P01127). Description: bridging ELISA: capture PDGF, detection biocytinamid-Cy5 (signal needs both arms); exchange mix, input 1.3 µM; highest value = 100%. In general terms: ELISA stands for enzyme-linked immunosorbent assay.
Experiment [2] has the same target. Description: bridging ELISA: capture PDGF, detection digoxygenin-Cy5 (signal needs both arms); exchange mix, input 1.3 µM; highest value = 100%.

UniProt P01127, sequence (P01127 82-190): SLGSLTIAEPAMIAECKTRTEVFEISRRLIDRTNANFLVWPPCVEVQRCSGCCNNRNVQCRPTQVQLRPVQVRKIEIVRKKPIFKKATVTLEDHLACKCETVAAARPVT

B1: anti-bio/anti-fluos bispecific antibody from exchange of bio 2/3-IgG (MHCFcRP-knob-E357K) with fluos 2/3-IgG (MHCFcRP-hole-K370E) (bispecific antibody)
heavy 1: QVQLVQSGAEVKKPGSSVKVSCKSSGFNNKDTFFQWVRQAPGQGLEWMGRIDPANGFTKYAQKFQGRVTITADTSTSTAYMELSSLRSEDTAVYYCARWDTYGAAWFAYWGQGTLVTVSS[human IgG1 constant region with changes left out]
light 1: DIQMTQSPSSLSASVGDRVTITCRASGNIHNYLSWYQQKPGKVPKLLIYSAKTLADGVPSRFSGSGSGTDFTLTISSLQPEDVATYYCQHFWSSIYTFGQGTKLEIKRTVAAPSVFIFPPSDEQLKSGTASVVCLLNNFYPREAKVQWKVDNALQSGNSQESVTEQDSKDSTYSLSSTLTLSKADYEKHKVYACEVTHQGLSSPVTKSFNRGEC
heavy 2: GVKLDETGGGLVQPGGAMKLSCVTSGFTFGHYWMNWVRQSPEKGLEWVAQFRNKPYNYETYYSDSVKGRFTISRDDSKSSVYLQMNNLRVEDTGIYYCTGASYGMEYLGQGTSVTVSSASTKGPSVFPLAPSSKSTSGGTAALGCLVKDYFPEPVTVSWNSGALTSGVHTFPAVLQSSGLYSLSSVVTVPSSSLGTQTYICNVNHKPSNTKVDKKV[human IgG1 Fc with changes left out]
light 2: DIVMTQTPLSLSVTPGQPASISCKSSQSLVHSNGNTYLRWYLQKPGQSPKVLIYKVSNRVSGVPDRFSGSGSGTDFTLKISRVEAEDVGVYYCSQSTHVPWTFGQGTKLEIKRTVAAPSVFIFPPSDEQLKSGTASVVCLLNNFYPREAKVQWKVDNALQSGNSQESVTEQDSKDSTYSLSSTLTLSKADYEKHKVYACEVTHQGLSSPVTKSFNRGEC
As to B1, the relative signal intensity with PDGF (CST, #8912) [1] is 3%; with PDGF (CST, #8912) [2] it was 3%.

B2: anti-fluos/anti-bio bispecific antibody from exchange of fluos 2/3-IgG (MHCFcRP-knob-E357K) with bio 2/3-IgG (MHCFcRP-hole-K370E) (bispecific antibody)
heavy 1: GVKLDETGGGLVQPGGAMKLSCVTSGFTFGHYWMNWVRQSPEKGLEWVAQFRNKPYNYETYYSDSVKGRFTISRDDSKSSVYLQMNNLRVEDTGIYYCTGASYGMEYLGQGTSVTVSS[human IgG1 constant region with changes left out]
light 1: B1 light 2
heavy 2: QVQLVQSGAEVKKPGSSVKVSCKSSGFNNKDTFFQWVRQAPGQGLEWMGRIDPANGFTKYAQKFQGRVTITADTSTSTAYMELSSLRSEDTAVYYCARWDTYGAAWFAYWGQGTLVTVSSASTKGPSVFPLAPSSKSTSGGTAALGCLVKDYFPEPVTVSWNSGALTSGVHTFPAVLQSSGLYSLSSVVTVPSSSLGTQTYICNVNHKPSNTKVDKKV[human IgG1 Fc with changes left out]
light 2: B1 light 1
Take B2: the relative signal intensity in the experiment with PDGF (CST, #8912) [1] was 3.2%; in the experiment with PDGF (CST, #8912) [2], 3.7%.
